Results taken from ChEMBL document CHEMBL4888484, “Replenishing the malaria drug discovery pipeline: Screening and hit evaluation of the MMV Hit Generation Library 1 (HGL1) against asexual blood stage Plasmodium falciparum ,using a nano luciferase reporter read-out” (2022).
In all, about 4,800 compounds went through this assay and about 420 (8.8%) showed an effect of 50% or more. Some of the results follow.

These compounds were tested on Plasmodium falciparum (assay: Confirmatory screen in NF54 nanoGlo assay, in single point, at 2uM, 72h). Details: timepoint 72 hour.
Assay type: functional, Erythrocyte
For `NC(=O)[C@@H]1CCCN1C(=O)c1ccnc(OC2CCCCC2)c1`, the “% Inhibition” value was -5%. With `COc1ccc(-c2cc3nn(CC(=O)NCCC(C)C)c(=O)n3c(C)n2)cc1` the “% Inhibition” value was -12%. In the case of `O=C1NC(c2ccccc2)=NC12CCN(Cc1c(F)cccc1F)CC2`, the “% Inhibition” value is reported as 45%. In the case of `CN(CC#N)C(=O)c1ccc(Br)cc1Br`, the “% Inhibition” value is reported as -12%. In the case of `CCOc1cc(-c2cc(-c3ccccc3O)nc3ccc4ccccc4c23)cc(Br)c1O`, the “% Inhibition” value is reported as 91%. With `CCc1nnc(-n2nc(C)cc2C)n1N1C(n2nnc3ccccc32)CCCC1n1nnc2ccccc21` (configuration not stated) the “% Inhibition” value was -3%. `CC(C)c1cc(=O)[nH]c(-n2nc(C3CC3)cc2NC(=O)COc2ccc3ccccc3c2)n1` was tested, and the “% Inhibition” value was 70%. `CC(C)c1ccc(-c2nn3c(C4CCN(S(C)(=O)=O)CC4)nnc3s2)cc1` was tested, and the “% Inhibition” value was -20%. For `O=C1NC2(CCCC2)Nc2ccccc21`, the “% Inhibition” value was 2%. For `O=S(=O)(c1ccc2ccccc2c1F)N1CC(CO)C1`, the “% Inhibition” value was -17%. `CN1Cc2cc(OCC3(O)CCOCC3)ccc2C1=O` was tested, and the “% Inhibition” value was -3%. With `CC[C@](C)(NCCc1c[nH]c2ccccc12)c1nnnn1CCCN1CCOCC1` the “% Inhibition” value was 2%. `CN(Cc1ncnn1C)C(=O)NCC1(c2cccs2)CCCCC1` was tested, and the “% Inhibition” value was -20%. With `CC1CN(C(=O)COc2ccc3oc4ccccc4c3c2)CC(C)O1` (configuration not stated) the “% Inhibition” value was -3%. In the case of `CC(C)(C)c1ccc(NC(=O)N[C@@]2(C)CCS(=O)(=O)C2)nn1`, the “% Inhibition” value is reported as -11%. For `COCCN(CC1CC=CCC1)C(=O)C1CCC(=O)N1` (configuration not stated), the “% Inhibition” value was -11%. With `Cc1nn(-c2ccc(NC(=O)[C@@H]3CCC(=O)N3)cn2)c(C)c1Cl` the “% Inhibition” value was -10%. `Cc1ccc(NC(=O)c2ccn(COc3ccccc3Cl)n2)nc1` was tested, and the “% Inhibition” value was -9%. `CCn1nc(C)c(C(=O)Nc2sc3c(c2C(N)=O)CCC3)c1C` was tested, and the “% Inhibition” value was -14%. In the case of `C=CCNC(=S)NS(=O)(=O)c1ccc(Cl)cc1`, the “% Inhibition” value is reported as 3%. `Cc1ccccc1OCc1nc2c3c(ncn2n1)Oc1cc(O)ccc1[C@@H]3c1ccccc1` was tested, and the “% Inhibition” value was 20%. For `Cc1[nH]ncc1CCCNCc1cscn1`, the “% Inhibition” value was 2%. `N#Cc1c(-c2ccccc2)cc(-c2ccccc2)n(C(=O)c2ccc(F)cc2)c1=O` was tested, and the “% Inhibition” value was 3%. For `CCN(CC)CC(O)COc1c(Br)cc(C(C)(C)c2cc(Br)c(OCC(O)CN(CC)CC)c(Br)c2)cc1Br` (configuration not stated), the “% Inhibition” value was 99%. For `Cc1ccc(C(N)C(C)S(C)(=O)=O)cc1` (configuration not stated), the “% Inhibition” value was -7%. In the case of `C[C@@H](C(=O)Nc1ccc(Br)cn1)N1C(=O)CCC1=O`, the “% Inhibition” value is reported as -16%. In the case of `CC(=O)Nc1c(-c2ccc(C)cc2)c(C)nn1-c1ccc(C(=O)Nc2cc(C)ccn2)cc1`, the “% Inhibition” value is reported as 49%. For `CC(C)(C)c1cccc(Oc2nn[nH]n2)c1`, the “% Inhibition” value was 2%. With `CCCC[C@H](CC)C(=O)Nc1c(C)cccc1CC` the “% Inhibition” value was -9%. In the case of `Cc1ccc2c(c1)C1NC(=O)NC(C)(O2)C1C(=O)Nc1ccc(Cl)cc1` (configuration not stated), the “% Inhibition” value is reported as -3%. `COc1ccc(C)c2sc(N(CCCn3ccnc3)C(=O)Cc3ccc(F)cc3)nc12` was tested, and the “% Inhibition” value was 79%. With `CCOC(=O)c1ncn(C2CCCCC2)c1N` the “% Inhibition” value was 1%. For `c1cc(-c2nnc(-c3ccncc3)s2)ccn1`, the “% Inhibition” value was -8%. For `COc1ccc(-c2cc(-c3ccccc3)nc(N3CCC(C)CC3)n2)cc1`, the “% Inhibition” value was 50%. For `O=C(Cc1ncc(C(F)(F)F)cc1Cl)c1ccc(Cl)c(Cl)c1`, the “% Inhibition” value was 3%. With `CC[C@H]1Cn2c(C(=O)NC3CCCC3)cc3c(Cl)ccc(c32)O1` the “% Inhibition” value was -12%. For `O=C(CCCc1nccs1)NCc1cc(Cl)cc2c1OCC2`, the “% Inhibition” value was -8%. With `N#Cc1cc(S(=O)(=O)NCCN(C2CC2)S(=O)(=O)c2ccc(Cl)c(C#N)c2)ccc1Cl` the “% Inhibition” value was 75%. For `O=C1[C@H](c2cccnc2)N(CCCc2ccccc2)C(=O)CN1c1ccccc1`, the “% Inhibition” value was -8%. With `CCN1c2cc(C(=O)Nc3ccc(OC)cc3OC)ccc2C(=O)N2CCCC[C@H]21` the “% Inhibition” value was 8%. With `Cc1cc(NC(=O)NC(C)C)c2[nH]c(C(=O)N3CCOCC3)c(-c3ccccc3)c2c1` the “% Inhibition” value was 3%. With `Cc1cc(=O)n2ncc(C(=O)Nc3ccc(F)cc3F)c2[nH]1` the “% Inhibition” value was 7%. In the case of `CC(C)CCNC(=O)c1cnn2c3c(cnc12)CCCC3`, the “% Inhibition” value is reported as -6%. In the case of `CC1(C)C[C@@H](NC(=O)COc2ccc(CO)cc2)CCO1`, the “% Inhibition” value is reported as -1%. With `Fc1cc(Cl)cnc1N1CCC2(CCOCC2)C1` the “% Inhibition” value was -2%. In the case of `C#CC[C@H](OC(=O)c1cccn1C)C1CC1`, the “% Inhibition” value is reported as -13%. With `C[C@H](C(=O)Nc1nc2c(ccc3ccccc32)s1)C1CCOCC1` the “% Inhibition” value was -10%. With `NC1(c2noc([C@@H]3CCCO3)n2)CCCCCC1` the “% Inhibition” value was 2%. `COc1ccc(C(=O)N2C[C@@H]3C[C@H]2C[C@@H]3NC(=O)c2ccccc2)cc1F` was tested, and the “% Inhibition” value was 4%. With `CC1(C(=O)NCc2ccc(F)cc2F)CCN(C(=O)CC2CCCC2)CC1` the “% Inhibition” value was 1%. `CC(C)(C)[C@@H](O)CNC(=O)c1c(O)cccc1F` was tested, and the “% Inhibition” value was -10%. In the case of `CN(C)c1cccc(CNc2ccc(C(F)(F)F)nn2)n1`, the “% Inhibition” value is reported as 1%. `O=S(=O)(c1ccccc1C(F)(F)F)N1CC[C@]2(CCN(c3cccnc3)C2)C1` was tested, and the “% Inhibition” value was -2%. With `CCCC(=O)Nc1cccc(C(=O)O)c1C` the “% Inhibition” value was -5%. For `CCCC[C@H](CC)C(=O)Nc1ccccc1C`, the “% Inhibition” value was 7%. With `CC(C)N(C)CC1CCN(C(=O)c2cc(-c3ccccc3)c(N3CCOCC3)s2)CC1` the “% Inhibition” value was -4%. `CC1(C)NC(=O)CC[C@@H]1NC1CC(c2cccc(F)c2)C1` (some centres not stated) was tested, and the “% Inhibition” value was 5%. With `Cc1nn(C)cc1-c1nn(-c2nc(C3CC3)cc(C(F)(F)F)n2)c(-c2cn(C)nc2C)c1C` the “% Inhibition” value was 16%. In the case of `CC1([C@@](O)(C#CC[N+]2(C)CCCCC2)c2ccccc2)CCCC1`, the “% Inhibition” value is reported as 50%. For `c1ccc(Cn2ncc3cc(-c4nc(C5CC5)no4)cnc32)cc1`, the “% Inhibition” value was 3%. With `COc1ccc(CCNC(=O)CCCC(=O)Nc2cccnc2)cc1OC` the “% Inhibition” value was 3%. In the case of `Cc1ccccc1C(=O)NCc1nn(C2CCCC2)c2c1COCC2`, the “% Inhibition” value is reported as -1%. `N#CC1(C(=O)NC(C2CC2)C2CC2)CCCC1` was tested, and the “% Inhibition” value was -14%. With `Cc1ccnc(NC(=O)c2cc(C#N)oc2C)n1` the “% Inhibition” value was -2%. In the case of `CC(C)(C)OC(=O)N(c1ccc(F)cc1)S(C)(=O)=O`, the “% Inhibition” value is reported as -7%. With `O=C(Nc1cnccn1)c1cccnc1OCC(F)F` the “% Inhibition” value was -4%. With `O=C(Nc1ccc(Cn2ccnc2)cc1)c1cc2ccccc2cc1OC(F)F` the “% Inhibition” value was -4%. For `COc1ccc(S(=O)(=O)N2CCN(C(=O)N(C)C)[C@@H]2c2ccccc2)cc1`, the “% Inhibition” value was 0%. `O=C(Cn1c(=O)n(-c2cc(F)cc(F)c2)c(=O)c2sccc21)NCc1ccc(F)cc1F` was tested, and the “% Inhibition” value was -4%. For `COCc1cc(=O)n(CC(=O)NCc2ccccc2Cl)c(N2CCCC2)n1`, the “% Inhibition” value was -11%. With `O=c1[nH]c2ccccc2nc1-c1cc(Br)ccc1NS(=O)(=O)c1cccc2nsnc12` the “% Inhibition” value was 0%. For `CC(C)NC(=O)Cn1ccnc1CCN1C(=O)c2ccccc2C1=O`, the “% Inhibition” value was -3%. With `CCCCN(CC)C(=O)[C@@H]1CCC(=O)N(CC(C)C)[C@H]1c1cccnc1` the “% Inhibition” value was -15%. For `C[C@H](NC(=O)N(Cc1ccccc1F)C1CCC1)c1cnn(C)c1`, the “% Inhibition” value was 1%. For `Nc1ccc2c(NC3CCC(=O)NC3C3CC3)ncnc2n1` (configuration not stated), the “% Inhibition” value was -12%. With `Cc1nn(C)c(C(=O)NCCCN2CCOCC2)c1Br` the “% Inhibition” value was -12%. `CCn1cc(Cl)c(C(=O)N2CCN(C(=O)c3ccco3)CC2)n1` was tested, and the “% Inhibition” value was -11%. For `CC1(CO)CCCC1NCc1cnc(N2CCOCC2)nc1` (configuration not stated), the “% Inhibition” value was 2%. For `CCCOc1cc(=O)c(C(=O)N2CCCC2)nn1-c1ccc(C)cc1`, the “% Inhibition” value was -3%. With `Brc1cncnc1N1CCC[C@H](c2nnn[nH]2)C1` the “% Inhibition” value was -15%. In the case of `C=CCC1(Nc2ccccc2)c2ccccc2-c2ccccc21`, the “% Inhibition” value is reported as -5%. `Cc1ccc(S(=O)(=O)/N=[S@@](/c2ccccc2)c2ccccc2C)cc1` was tested, and the “% Inhibition” value was -5%. `COc1ccc(Nc2nnc(/C=C/c3ccccc3)c(=O)n2N)cc1` was tested, and the “% Inhibition” value was 10%. `Cn1ccc(C2=Nc3ccccc3NC(=O)C2)n1` was tested, and the “% Inhibition” value was -4%. In the case of `Cc1ccc(CNC(=O)[C@@H](C)C2CCOCC2)o1`, the “% Inhibition” value is reported as -2%. `CCC(=O)N1CCc2sc(S(=O)(=O)N3CCN(c4cc(C)ccc4C)CC3)cc2C1` was tested, and the “% Inhibition” value was 36%. `CCNC(=O)C1Cc2ccc(OC)cc2N2CCN(c3ccc(OC)cc3)CC12` (configuration not stated) was tested, and the “% Inhibition” value was 2%. With `O=C(c1nc(C2CC2)ncc1Br)N1CCC[C@H]1C1CCOCC1` the “% Inhibition” value was -1%. In the case of `Cc1cc(=O)n2ncc(C(=O)Nc3cc(F)ccc3C)c2[nH]1`, the “% Inhibition” value is reported as -18%. In the case of `CCCn1nnnc1Cn1ncc2ccccc2c1=O`, the “% Inhibition” value is reported as 3%. For `CO/N=C(\Nc1cc(C)ccc1C)c1nonc1N`, the “% Inhibition” value was 6%. With `CCN1CCN(c2nc(O)c3c(n2)NC(=O)C[C@H]3c2cccc(F)c2)CC1` the “% Inhibition” value was -11%. For `Cc1cccc(S(=O)(=O)c2cnc(N3CCC(Cc4ccccc4)CC3)nc2N)c1`, the “% Inhibition” value was -17%. `Nc1nc(N2CCC3(CC2)OCCO3)ncc1C(=O)Nc1ccccc1` was tested, and the “% Inhibition” value was -11%. In the case of `COc1ccc([C@@H]2C(C#N)(C#N)C23C(=O)CC(C)(C)CC3=O)cc1`, the “% Inhibition” value is reported as -9%. In the case of `Cc1ccc(-c2ccc(CN(CC(=O)NCC(=O)O)C(C)C)s2)cc1`, the “% Inhibition” value is reported as -4%. In the case of `CC[n+]1c(/C=C/N(C)c2ccccc2)oc2ccc(-c3ccccc3)cc21`, the “% Inhibition” value is reported as 89%. In the case of `C[C@H](NC(=O)c1ccco1)c1cc2c(cc1Br)OCCCO2`, the “% Inhibition” value is reported as 26%. In the case of `Cc1nc(N2CCC(C)CC2)ncc1-c1cc(=O)[nH]c(NCc2ccccc2)n1`, the “% Inhibition” value is reported as -15%. For `Cc1cccc(NC(=O)Nc2cc(F)c3[nH]c(=O)ccc3c2)c1`, the “% Inhibition” value was -4%. For `Cc1cc(-c2nc(C3(c4ccncc4)CCC3)no2)ccn1`, the “% Inhibition” value was -3%. `CC[C@H](C)NS(=O)(=O)c1cccc(N)c1` was tested, and the “% Inhibition” value was -4%. For `Cc1ccc2c(c1)N(S(C)(=O)=O)CC[C@@H](C(=O)NC1CC1)O2`, the “% Inhibition” value was -10%. For `Cc1ccc(NC(=O)Nc2cccc(-c3ccc(N4CCN(C)CC4)nn3)c2)cc1C`, the “% Inhibition” value was 10%. `O=C1NC2(CCC2)C(=O)N1CCCCOc1ccccc1` was tested, and the “% Inhibition” value was -15%. `CCn1c(=O)c(N2CCC(C(=O)NCCCc3ccccc3)CC2)nc2cccnc21` was tested, and the “% Inhibition” value was -5%. With `Cc1oc2ncn(CCN3CCCC3)c(=O)c2c1C(=O)Nc1ccc(C#N)cc1` the “% Inhibition” value was 34%.
